{"source": "PubChem BioAssay AID1030", "about": "(National Center for Advancing Translational Sciences (NCATS), 2008)", "note": "In all, about 220,000 compounds went through this assay and about 16,000 (7.3%) were called active. Inconclusive means that the source gave no clear call. Such entries were picked first, then a sample of the others. Calls follow the shape of the dose curve; as a rule, active = well fitted inhibition curve with a large enough effect (not every such curve was filed as active); inconclusive = small, poorly fitted or top-dose-only effect, or another doubt; inactive = no such curve, though single readings can be large or run the other way. Potencies of inconclusive entries are left out as doubtful fits. Potency is read from the fitted curve at half-maximal effect; tags tell the direction and shape of the fitted curve."}
{"target": "Aldehyde dehydrogenase 1A1 (Homo sapiens) (UniProt P00352)", "sequence (P00352 whole entry, looked up)": "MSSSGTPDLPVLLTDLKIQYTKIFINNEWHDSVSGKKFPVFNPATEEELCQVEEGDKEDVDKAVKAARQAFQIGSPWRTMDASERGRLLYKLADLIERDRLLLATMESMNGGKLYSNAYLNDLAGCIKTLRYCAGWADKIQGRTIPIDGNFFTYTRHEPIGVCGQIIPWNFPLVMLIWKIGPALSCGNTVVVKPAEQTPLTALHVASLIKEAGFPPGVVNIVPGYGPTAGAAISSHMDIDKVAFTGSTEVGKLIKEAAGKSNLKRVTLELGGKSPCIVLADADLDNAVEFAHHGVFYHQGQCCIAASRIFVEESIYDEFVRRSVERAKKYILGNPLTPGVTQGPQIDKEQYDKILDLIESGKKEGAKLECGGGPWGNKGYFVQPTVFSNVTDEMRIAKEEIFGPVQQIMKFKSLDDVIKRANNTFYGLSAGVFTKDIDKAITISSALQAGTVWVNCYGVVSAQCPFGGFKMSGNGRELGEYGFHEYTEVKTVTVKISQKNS", "assay": "qHTS Assay for Inhibitors of Aldehyde Dehydrogenase 1 (ALDH1A1)", "details": "Purified ALDH1A1, NADH fluorescence, propionaldehyde substrate; series mostly up to 75.3 µM"}
{"compound": "Cc1ccc(N2CCOCC2)c2c1C(=O)c1ccccc1C2=O", "Potency": "inactive"}
{"compound": "Cc1ccc2sc(NC(=O)CN3C(=O)CCC3=O)nc2c1C", "Potency": "inactive"}
{"compound": "COc1ccc(C2SCCN2C(=S)Nc2cccc(Cl)c2)cc1", "note": "(stereo not drawn)", "Potency": "inconclusive [inhibitor, single point]"}
{"compound": "CCn1ccnc1[C@@H]1C[C@H]2CN(Cc3ccccc3OC)C(=O)[C@]23CCCN13", "Potency": "inactive"}
{"compound": "COCCn1c(=O)c(C)nc2cnc(N(C)C)nc21", "Potency": "inconclusive [inhibitor, single point]"}
{"compound": "CCOC(=O)N1CCN(CC(=O)Nc2ccc(C)cc2)CC1", "Potency": "inconclusive [inhibitor, single point]"}
{"compound": "COc1cc(OC)c(OC)cc1CN1CCN(S(=O)(=O)c2ccc(NC(C)=O)cc2)CC1", "Potency": "inconclusive [inhibitor, partial curve, poor fit]"}
{"compound": "COc1cc(C2c3sc(=O)[nH]c3SC3C4CCC(C4)C23)ccc1O", "note": "(stereo not drawn)", "Potency": "inconclusive [inhibitor, single point]"}
{"compound": "COc1ccc(S(=O)(=O)N2CCCN(CC(=O)Nc3ccc(OC)c(Cl)c3)CC2)cc1", "Potency": "active: 1.58 µM"}
{"compound": "O=C(Cc1ccc([N+](=O)[O-])cc1)NCc1ccccn1", "Potency": "inactive"}
{"compound": "COc1ccc(N(C(=O)C(C)C)S(=O)(=O)c2ccc(Cl)cc2)cc1", "Potency": "inconclusive [inhibitor, single point]"}
{"compound": "Cc1ccc2c(c1)C1CCCC3C1N2CC(=O)N3Cc1ccccc1", "note": "(stereo not drawn)", "Potency": "active: 22.4 µM"}
{"compound": "Cc1cc(C)c(C(=O)CSc2nnc(N)s2)c(C)c1", "Potency": "inactive"}
{"compound": "Cc1ccc(-c2[nH]c(-c3ccc(C(=O)O)cc3)nc2-c2ccccc2)cc1", "Potency": "inconclusive [inhibitor, partial curve]"}
{"compound": "O=C(Nc1ccc2oc(-c3ccncc3)nc2c1)c1cccs1", "Potency": "inconclusive [inhibitor, partial curve]"}
{"compound": "Cc1cccc(OCc2nnc(SCn3nnc4ccccc4c3=O)o2)c1", "Potency": "inconclusive [inhibitor, partial curve, poor fit]"}
{"compound": "Cc1ccccc1-c1nnc(-c2ccccc2C)o1", "Potency": "inactive"}
{"compound": "O=C(NCc1nnc(SCC(=O)N2CCCC2)o1)c1ccco1", "Potency": "inactive"}
{"compound": "CCCc1cc(-c2n[nH]c(=S)n2C(C)c2ccccc2)cs1", "note": "(stereo not drawn)", "Potency": "inconclusive [inhibitor, full curve]"}
{"compound": "CSc1nc(C)cc(C)c1S(=O)(=O)c1ccccc1C", "Potency": "inactive"}
{"compound": "Cc1ccc(NC(=S)NNC(=O)C2CC2c2ccc(C)cc2)cc1", "note": "(stereo not drawn)", "Potency": "inconclusive [inhibitor, single point]"}
{"compound": "Cn1c(=O)c2cn(-c3ccc4c(c3)OCCO4)cc2n(C)c1=O", "Potency": "inconclusive [inhibitor, partial curve]"}
{"compound": "CO/N=C/C(C(C)=O)C(=O)Nc1ccc(Cl)cc1Cl", "note": "(stereo not drawn)", "Potency": "inconclusive [inhibitor, single point]"}
{"compound": "CCN(CC)CCCNC(=O)c1cc(-c2cccc(Cl)c2)on1", "Potency": "inconclusive [inhibitor, single point]"}
{"compound": "Cc1ccc(C2CC2c2n[nH]c(=S)n2-c2cccc(C)c2)cc1", "note": "(stereo not drawn)", "Potency": "inconclusive [inhibitor, partial curve, poor fit]"}
{"compound": "Cc1sc2nc(COC(=O)CNC(=O)c3ccc(C(C)(C)C)cc3)[nH]c(=O)c2c1C", "Potency": "active: 8.91 µM"}
{"compound": "COc1ccc(C)cc1Nc1nc(-c2c[nH]c3ccccc23)cs1", "Potency": "inconclusive [inhibitor, single point]"}
{"compound": "Cc1cc(SCC(=O)NC(=O)NCc2ccco2)nc2ccccc12", "Potency": "inconclusive [inhibitor, single point]"}
{"compound": "CCN(CC)S(=O)(=O)c1ccc2c(c1)nc(CCC(=O)Nc1ccc3c(c1)OCO3)n2CC", "Potency": "active: 2.82 µM"}
{"compound": "CCOc1ccc(NC(=O)C(c2ccccn2)N(C(=O)CCl)c2ccc(F)cc2)cc1", "note": "(stereo not drawn)", "Potency": "active: 11.2 µM"}
{"compound": "N=C1/C(=C\\c2coc3ccc(O)cc3c2=O)C(=O)N=C2SC=CN12", "Potency": "active: 15.8 µM"}
{"compound": "CC1=C(C(=O)Nc2ccccn2)C(c2ccc(Br)cc2)n2ncnc2N1", "note": "(stereo not drawn)", "Potency": "inconclusive [inhibitor, partial curve]"}
{"compound": "CCOC(=O)c1cn2cccnc2n1", "Potency": "inconclusive [inhibitor, partial curve]"}
{"compound": "CN(C)S(=O)(=O)c1ccc(C(=O)NCC(=O)N/N=C/c2ccccc2)cc1", "Potency": "inconclusive [inhibitor, single point]"}
{"compound": "COc1ccc(C2SCC(=O)N2CC23CC4CC(CC(C4)C2)C3)cc1", "note": "(stereo not drawn)", "Potency": "inconclusive [inhibitor, single point]"}
{"compound": "Cc1ccc(-c2nnn(CC(=O)N(Cc3ccc(F)cc3)C(C(=O)NC3CCCC3)c3ccncc3)n2)o1", "note": "(stereo not drawn)", "Potency": "inconclusive [inhibitor, single point]"}
{"compound": "CC(C)(C)c1ccc(C(=O)C=[N+]=[N-])cc1", "Potency": "active: 6.31 µM"}
{"compound": "CCC[C@@H]1C[C@@]1(CCC)C(NC(=O)OCc1ccccc1)c1ccc(-c2ccccc2)cc1", "note": "(stereo partly drawn)", "Potency": "inactive"}
{"compound": "Cc1ccc(-n2c(SCC(=O)NCCN3C(=O)CSC3=O)nnc2-c2ccccc2)cc1", "Potency": "inactive"}
{"compound": "Oc1cccc(C(=S)N2CCN(Cc3ccccc3)CC2)c1", "Potency": "active: 11.2 µM"}
{"compound": "O=C(NCCc1ccccc1)c1oc2ccccc2c1COc1ccccc1", "Potency": "inactive"}
{"compound": "S=c1[nH]nc(CSc2nc3ccccc3s2)o1", "Potency": "active: 17.8 µM"}
{"compound": "COc1ccc(CN(C)CC(=O)Nc2ccc(SC(F)F)cc2)cc1OC", "Potency": "inactive"}
{"compound": "CC1=C(C(=O)Nc2nc3ccccc3s2)C(c2ccco2)C(C#N)=C(SCC(=O)NC2CCCCC2)N1", "note": "(stereo not drawn)", "Potency": "inconclusive [inhibitor, partial curve]"}
{"compound": "Cc1nn2c(N3CCN(C(=O)c4ccco4)CC3)cc(C(C)(C)C)nc2c1-c1ccccc1", "Potency": "inconclusive [inhibitor, single point]"}
{"compound": "Cc1ccc(SCc2cc(=O)c3c(=O)n(-c4ccccc4)[nH]c3[nH]2)cc1", "Potency": "inactive"}
{"compound": "O=C(c1ccc(COc2ccc(Cl)cc2)o1)N1CCN(Cc2ccc3c(c2)OCO3)CC1", "Potency": "inactive"}
{"compound": "COc1cc2c(=O)n(CC3CCCO3)c(=O)n(CC(=O)Nc3cccc(Cl)c3)c2cc1OC", "note": "(stereo not drawn)", "Potency": "inconclusive [inhibitor, partial curve]"}
